This is an account of results in paper PMC11784026, “Phase 1 study of the safety, tolerability, and pharmacokinetics of a synthetic macrocyclic peptide antibiotic (BRII-693) in healthy adult participants” (Antimicrobial Agents and Chemotherapy, 2024).

Each structure is given as a SMILES string. Where a SMILES comes first, the peptide text is derived from it. Bridges are numbered along the chain shown (N, C = ends). [ ]: non-standard residue; d: D form. The star is where a group is joined. X1 = O=C(c1ccc(Cl)cc1Cl)*; Dab = NCC[C@H](N)C(=O)O; Abu = CC[C@H](N)C(=O)O; Dap = NC[C@H](N)C(=O)O

For this series the following is noted: in vivo; cohort 12, 150 mg q6h × 14 days, Chinese (4 of 10); COVID-19, upper respiratory tract infection, presyncope.

With `CC[C@@H]1NC(=O)[C@@H](CC(C)C)NC(=O)[C@H](CCN)NC(=O)[C@@H](NC(=O)[C@H](CN)NC(=O)[C@@H](NC(=O)[C@H](CCN)NC(=O)c2ccc(Cl)cc2Cl)[C@@H](C)O)CCNC(=O)[C@H]([C@@H](C)O)NC(=O)[C@H](CCN)NC(=O)[C@H](CCN)NC1=O` [BRII-693] (X1-[Dab]T[Dap][Dab][Dab][dL][Abu][Dab][Dab]T; lactam 4-C; N-terminus assumed), the “Participants who discontinued the study due to AEs” value came out at 40.0%.
